The whole screen tested about 310,000 compounds, of which about 18,000 (5.8%) were called active. Inconclusive means that the source gave no clear call. Such entries were picked first, then a sample of the others. Calls follow the shape of the dose curve; as a rule, active = well fitted inhibition curve with a large enough effect; inconclusive = small, poorly fitted or top-dose-only effect, or another doubt; inactive = no such curve, though single readings can be large or run the other way. No potency is given beside an inconclusive call; the fits are too rough.
assay: Primary qHTS for delayed death inhibitors of the malarial parasite plastid, 48 hour incubation; details: P. falciparum luciferase growth in erythrocytes; series mostly up to 28.7 µM
How it was run: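 Compounds are pin-transferred into medium, infected erythrocytes (2% hematocrit, 0.1% parasitemia final) are added, and plates sit one parasite generation at 37 C in 5% CO2. Detection reagent is then added and luminescence measured.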
Potency is read from the fitted curve at half-maximal effect; tags tell the direction and shape of the fitted curve.

| SMILES | Potency |
| --- | --- |
| Cc1nc2cc(NC(=O)N3CCCC3)ccc2n1C | inactive |
| CC1(C)Oc2ccc(C#N)cc2[C@@H](N2CCCC2=O)[C@@H]1O | inactive |
| O=C(NCCc1c[nH]c2ccccc12)C(=O)NCC1OCCN1S(=O)(=O)c1ccc(Cl)cc1 (stereo not given) | inconclusive [inhibitor, single point] |
| CC(C)CC(/C(O)=C(\C#N)c1nc2ccccc2[nH]1)N1C(=O)c2ccccc2C1=O (stereo not given) | inconclusive [inhibitor, single point] |
| CCCCCn1c(N)c(C#N)c2nc3ccccc3nc21 | inconclusive [inhibitor, single point] |
| O=C(CSc1nc2sc3c(c2c(=O)n1-c1ccccc1)CCCC3)NCc1ccco1 | inactive |
| C=CCn1c(NCc2ccc3c(c2)OCO3)nc2ccccc21 | inconclusive [inhibitor, partial curve, poor fit] |
| O=C(NC(=S)Nc1nc2c(ccc3ccccc32)s1)c1cccs1 | inactive |
| CC(Sc1nnc(CN2CCCC2)n1Cc1ccccc1)C(=O)Nc1ccccc1 (stereo not given) | inconclusive [inhibitor, single point] |
| CC(C)(C)OC(=O)N1CCC[C@H]1c1nnc(SCc2c(Cl)cccc2Cl)o1 | active: 9.28 µM |
| CCN1CCN(c2ccc(S(=O)(=O)N3CCCCC3)cc2NC(=O)c2ccc(C)o2)CC1 | inconclusive [inhibitor, partial curve] |
| O=C(O)c1cccc2nc3ccccc3nc12 | inconclusive [inhibitor, partial curve, poor fit] |
| Cc1cc([N+](=O)[O-])nn1CC(=O)Nc1ccccn1 | inactive |
| Cc1ccc(-n2cccn2)c([C@@H]2C[C@H]3CN(C)C(=O)[C@]34CCCN24)c1 | inconclusive [inhibitor, partial curve] |
| Cn1c(SCC(=O)Nc2cccc(S(=O)(=O)NC3=NCCCCC3)c2)nnc1-c1ccncc1 | inactive |
| Cc1ccc(C(c2nnnn2C(C)(C)C)N2CCc3ccccc3C2)cc1 (stereo not given) | inactive |
| CCCNC(=O)OC[C@H]1O[C@H](CCO/N=C(\C)CCN2CCc3nc(-c4ccccc4)c(-c4ccccc4)cc3C2)C=C[C@@H]1Oc1ccc(OC)cc1 | active: 5.86 µM |
| Nc1c(C(=O)NCCN2CCOCC2)c2nc3ccccc3nc2n1Cc1ccco1 | active: 9.28 µM |
| COc1ccccc1CNC(=O)C(=O)NCCC1CCCCN1S(=O)(=O)c1ccccc1 (stereo not given) | inconclusive [inhibitor, single point] |
| O=C(NC(=S)Nc1ccc(CN2CCCCC2)cc1)c1cc2ccccc2o1 | inconclusive [inhibitor, single point] |
| O=C1CN(c2ccccc2)C(=S)N1C(=O)c1ccccc1 | inactive |
| CCn1c(Cc2ccccc2)nnc1SC(C)C(=O)NC1CC1 (stereo not given) | inactive |
| NC(=O)c1ccc(-c2nnc(Nc3ccc(S(N)(=O)=O)cc3)c3ccccc23)cc1 | inconclusive [inhibitor, single point] |

| SMILES | Potency |
| --- | --- |
| CCOC(=O)CC(NC(=O)Cc1cccs1)c1ccccc1Cl (stereo not given) | inactive |
| O=S(=O)(CC(CN1CCCC1)N1CCCC1)c1ccc2ccccc2c1 (stereo not given) | inconclusive [inhibitor, single point] |
| COc1ccc(C)cc1NC(=O)C1CCCN1S(=O)(=O)c1ccccc1F (stereo not given) | inconclusive [inhibitor, partial curve] |
| O=C1NC(=S)N(C2CC2)C(=O)/C1=C/c1ccc2c(c1)CCN2CCCCl | inactive |
| CCCCCCCOC1(c2ccccc2)OC(=O)c2ccccc21 (stereo not given) | inconclusive [inhibitor, partial curve] |
| CC(C)Sc1nc2c(c(=O)n1-c1ccc(F)cc1)SCC2 | inconclusive [inhibitor, partial curve] |
| COc1ccc(N(CC(=O)N/N=C/c2ccc(-c3ccc([N+](=O)[O-])cc3)o2)S(=O)(=O)c2ccc(C)cc2)cc1Cl | inconclusive [inhibitor, single point] |
| O=C(O)c1ccc(N/N=C/C2=C(N3CCOCC3)C(=C\c3ccccc3)/CC2)cc1 | inconclusive [inhibitor, partial curve, poor fit] |
| Cc1c(NC(=O)C(C)N2C(=O)NC3(CCC(C)CC3)C2=O)c(=O)n(-c2ccccc2)n1C (stereo not given) | inactive |
| COc1ccc(-n2c(Cc3cccn3C)nnc2SCC(=O)Nc2cc(Cl)ccc2OC)cc1 | active: 10.4 µM |
| COc1cc(/C=N/N=C/c2c[nH]c(=O)c(C#N)c2Nc2ccccc2)ccc1O | inactive |
| CCc1ccc(OCCCC(=O)Nc2ccc(N3CCOCC3)cc2)cc1 | inactive |
| O=C(CSc1nnc(C2CC2)n1C1CC1)Nc1cccc(Br)c1 | inconclusive [inhibitor, single point] |
| CN1CCN(C(=O)C2=C[C@@H](c3ccc(Br)cc3)C[C@@H](OCc3ccc(CO)cc3)O2)CC1 | inconclusive [inhibitor, partial curve, poor fit] |
| C/C=C(\C)CN1CCCC(N(C)CCc2ccc(OC)c(OC)c2)C1 (stereo not given) | inconclusive [inhibitor, single point] |
| Cc1cc(OCC(=O)NCc2ccccn2)c2c(C)c(C)c(=O)oc2c1 | inconclusive [inhibitor, single point] |
| CN(CC(=O)NCc1ccc(Cl)cc1)S(=O)(=O)c1cccs1 | inactive |
| CN1c2ccccc2C(O)=C(C(=S)Nc2ccccc2)S1(=O)=O | inconclusive [inhibitor, single point] |
| Cc1cccc(N(C(=O)Cc2cccs2)C(C(=O)NC2CCCC2)c2ccsc2)c1 (stereo not given) | inconclusive [inhibitor, single point] |
| Cc1cccc(C)c1Nc1nnc(SCC(=O)NC(=O)c2cccn2C)s1 | inactive |
| CC(C)C(=O)Nc1nnc(SCC(=O)N2C(C)CCCC2C)s1 (stereo not given) | inconclusive [inhibitor, partial curve] |
| c1csc(-c2nnsc2-c2nc3ccccc3[nH]2)c1 | inactive |

Reference: PubChem BioAssay AID504832 (National Center for Advancing Translational Sciences (NCATS), 2011)
